{"source": "PubChem BioAssay AID588855", "about": "(National Center for Advancing Translational Sciences (NCATS), 2011)", "note": "Hit rate of the full screen: of about 410,000 compounds, about 5,000 (1.2%) were called active. This list was built around the results that the source calls inconclusive (neither active nor inactive); the mix of calls is not that of the screen. Calls follow the shape of the dose curve; as a rule, active = well fitted inhibition curve with a large enough effect; inconclusive = small, poorly fitted or top-dose-only effect; inactive = no such curve, though single readings can be large or run the other way. Where the call is inconclusive, the potency comes from a doubtful curve fit. Potency is read from the fitted curve at half-maximal effect; tags tell the direction and shape of the fitted curve."}
{"assay": "qHTS for Inhibitors of TGF-b; also: nearly all actives have a fitted effect of over 65% in size", "settings": "HepG2 CAGA-GFP TGF-b/SMAD3 reporter, GFP fluorescence, 18 h, TGF-beta stimulated, 500 pg/mL final; series mostly up to 46.1 µM", "outline": "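Inhibition of TGF-beta-driven CAGA-GFP reporter expression in HEPG2 cells is measured by cellular GFP fluorescence after 18 h stimulation with 500 pg/mL recombinant TGF-beta in 1% FBS medium at 37 degrees C.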"}
{"smiles": "Cc1cc(C(=O)Nc2ccccc2N2CCOCC2)no1", "Potency": "inactive"}
{"smiles": "O=C(NCCCCc1ccccc1)c1ccc(Br)o1", "Potency": "inconclusive: 3.98 µM [inhibitor, full curve]"}
{"smiles": "O=C(CN1C(=O)C2(SCC(=O)N2c2cccc(F)c2)c2ccccc21)NCCc1ccccc1", "note": "(centres undefined)", "Potency": "inactive"}
{"smiles": "Cc1ccc(CN2CCCC(CO)(Cc3ccccc3C)C2)s1", "note": "(centres undefined)", "Potency": "inconclusive: 5.01 µM [inhibitor, partial curve, poor fit]"}
{"smiles": "O=C1N[C@@H](c2ccccc2)COC(=O)[C@@H](Cc2ccc(F)cc2)CC/C=C/C[C@H]1CC(=O)N(CCO)Cc1ccccc1", "Potency": "inconclusive: 25.1 µM [inhibitor, single point]"}
{"smiles": "NC(=O)CC(NC(=O)Cc1cccc2ccccc12)c1ccc(N2CCCCCCC2)c([N+](=O)[O-])c1", "note": "(centres undefined)", "Potency": "inconclusive: 22.4 µM [inhibitor, single point]"}
{"smiles": "N=c1n(CCN2CCOCC2)c2ccccc2n1CC(=O)c1ccc(Cl)c(Cl)c1", "Potency": "inconclusive: 17.8 µM [inhibitor, single point]"}
{"smiles": "O=C(Oc1ccc(Cl)c2cccnc12)C12CC3CC(CC(C3)C1)C2", "Potency": "inconclusive: 2.51 µM [inhibitor, full curve, poor fit]"}
{"smiles": "Cc1ccc(-c2nnn(CC(=O)N(Cc3cccs3)C(C(=O)NC3CCCC3)c3ccncc3)n2)cc1", "note": "(centres undefined)", "Potency": "inconclusive: 35.5 µM [inhibitor, single point]"}
{"smiles": "CCC(c1nnnn1Cc1ccccc1)N(Cc1ccccc1)Cc1cc2cc(C)ccc2[nH]c1=O", "note": "(centres undefined)", "Potency": "inconclusive: 35.5 µM [inhibitor, single point]"}
{"smiles": "COc1ccc(-c2nnn3c2nc(NCc2ccc(C)cc2)c2ccccc23)cc1", "Potency": "inconclusive: 1.12 µM [inhibitor, partial curve]"}
{"smiles": "CCOc1ccc(-c2nnc(-c3ccncc3)o2)cc1", "Potency": "inactive"}
{"smiles": "Cc1cc(C)c(NC(=O)C(C)n2c(=O)cc(-c3ccccc3)c3c(C)nn(C)c32)c(C)c1", "note": "(centres undefined)", "Potency": "inactive"}
{"smiles": "Cc1ccc(S(=O)(=O)N(CC(=O)N/N=C/c2ccco2)c2cc(Cl)cc(Cl)c2)cc1", "Potency": "inconclusive: 35.5 µM [inhibitor, single point]"}
{"smiles": "CCc1ccc2[nH]c(=O)c(CN(CCN(CC)CC)C(=S)NCc3ccco3)cc2c1", "Potency": "inconclusive: 22.4 µM [inhibitor, single point]"}
{"smiles": "CCc1nc2c(OCC3CCCCC3)cccn2c1N(C)C(=O)c1ccc(OC)cc1", "Potency": "inconclusive: 15.8 µM [inhibitor, single point]"}
{"smiles": "CCn1c(=O)c2cc(C(=O)NCCCN3CCN(c4ccc(F)cc4)CC3)sc2c2ccccc21", "Potency": "inconclusive: 20 µM [inhibitor, partial curve]"}
{"smiles": "O=S(Cc1ccc(Br)cc1)Cc1nnc(SCc2c(Cl)cccc2Cl)n1-c1ccccc1", "note": "(centres undefined)", "Potency": "inconclusive: 35.5 µM [inhibitor, single point]"}
{"smiles": "O=C(CSC1=Nc2ccccc2C2CC=NN12)Nc1ccc(F)cc1Cl", "note": "(centres undefined)", "Potency": "inactive"}
{"smiles": "S=C(NCc1ccccc1)N1CCN(C(=S)NCc2ccccc2)CC1", "Potency": "inactive"}
{"smiles": "CC(=O)CCS(=O)(=O)c1ccc(NC(C)=O)cc1", "Potency": "inconclusive: 35.5 µM [inhibitor, single point]"}
{"smiles": "O=C(Nc1ccc2c(c1)OCO2)C1Cc2c(-c3ccc(Cl)cc3)ccnc2O1", "note": "(centres undefined)", "Potency": "inconclusive: 25.1 µM [inhibitor, single point]"}
{"smiles": "Cc1cc(C(=O)N(C)CC(=O)Nc2ccccc2C(F)(F)F)c(C)o1", "Potency": "inactive"}
{"smiles": "CN(CC1CCCO1)S(=O)(=O)c1ccc(C(=O)Nc2nc(-c3ccccn3)cs2)cc1", "note": "(centres undefined)", "Potency": "inconclusive: 10 µM [inhibitor, partial curve]"}
{"smiles": "N#Cc1cccc(C#N)c1Oc1ccc(S(=O)(=O)Nc2ccc(Cl)cc2)cc1", "Potency": "inconclusive: 15.8 µM [inhibitor, single point]"}
{"smiles": "O=C(COC(=O)c1c(F)cccc1F)NCCNC(=O)COC(=O)c1c(F)cccc1F", "Potency": "inconclusive: 6.31 µM [inhibitor, single point]"}
{"smiles": "CCCc1ccc(S(=O)(=O)N2CCC(c3nnc(-c4cccc(C)c4)o3)CC2)cc1", "Potency": "inconclusive: 4.47 µM [inhibitor, full curve]"}
{"smiles": "CC[C@]12c3[nH]c4cc(-c5ccco5)ccc4c3CCN1C(=O)[C@@H](CC(=O)NCC13CC4CC(CC(C4)C1)C3)C[C@@H]2C(=O)N1CCN(C(=O)C2CC2)CC1", "Potency": "inconclusive: 6.31 µM [inhibitor, partial curve, poor fit]"}
{"smiles": "Cc1sc(NC(=O)/C=C/c2ccc3c(c2)OCO3)nc1-c1ccccc1", "Potency": "inconclusive: 22.4 µM [inhibitor, single point]"}
{"smiles": "COc1ccc(OC)c(CNC(=O)c2ccc3nc(C(C)C)oc3c2)c1", "Potency": "inconclusive: 11.2 µM [inhibitor, single point]"}
{"smiles": "C[C@H](CO)N1C[C@H](C)[C@@H](CN(C)C(=O)Nc2ccc(C(F)(F)F)cc2)Oc2ccc(NC(=O)Nc3ccc4c(c3)OCO4)cc2C1=O", "Potency": "inconclusive: 11.2 µM [inhibitor, single point]"}
{"smiles": "C=CCn1c(C)cc(C(=O)COC(=O)c2ccc3c(c2)NC(=O)CS3)c1C", "Potency": "inactive"}
{"smiles": "Cc1ccc(C)c(C(O)c2ncc(-c3cccc(C(F)(F)F)c3)[nH]2)c1", "note": "(centres undefined)", "Potency": "inconclusive: 10 µM [inhibitor, single point]"}
{"smiles": "O=C(NCCN1C(=O)S/C(=C\\c2ccccc2F)C1=O)C1CCCN1C(=O)c1cccs1", "note": "(centres undefined)", "Potency": "inconclusive: 8.91 µM [inhibitor, partial curve, poor fit]"}
{"smiles": "CN(CC(=O)Nc1cccc(S(=O)(=O)NC2=NCCCCC2)c1)Cc1ccc(C(C)(C)C)cc1", "Potency": "inconclusive: 14.1 µM [inhibitor, partial curve, poor fit]"}
{"smiles": "CN(C)CCCn1c(SCC(=O)Nc2nccs2)nnc1-c1ccncc1", "Potency": "inactive"}
{"smiles": "Cc1cccc([C@@H]2[C@@H]3C(=O)N(Cc4ccccc4)C(=O)[C@@H]3[C@]3(Cc4ccc(Cl)cc4)C(=O)N(c4cccc(Br)c4)C(=O)N23)c1", "Potency": "inactive"}
{"smiles": "Oc1cccc(/C=N/N=C/c2cccc(O)c2O)c1O", "Potency": "inactive"}
{"smiles": "Cc1ccc(S(=O)(=O)N2[C@@H](c3ccc(Cl)cc3)C(C(=O)O)=C[C@H]2CC2CCCC2)cc1", "Potency": "inconclusive: 22.4 µM [inhibitor, single point]"}
